Results reported in publication PMC4336329 (PLoS ONE, 2015).
Screen size: about 310,000 compounds; about 14,000 (4.5%) showed an effect of 50% or more. The effect is printed as a negative number. This is one part of the list.

Target: human ether-à-go-go-related gene (hERG) potassium channel (human, UniProt Q12809)
Test: primary screen, population patch clamp on CHO cells stably expressing hERG
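Note: peak tail current of the secondary pulse compared with the same well before compound.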

Chain of human ether-à-go-go-related gene (hERG) potassium channel (Q12809 whole entry, looked up): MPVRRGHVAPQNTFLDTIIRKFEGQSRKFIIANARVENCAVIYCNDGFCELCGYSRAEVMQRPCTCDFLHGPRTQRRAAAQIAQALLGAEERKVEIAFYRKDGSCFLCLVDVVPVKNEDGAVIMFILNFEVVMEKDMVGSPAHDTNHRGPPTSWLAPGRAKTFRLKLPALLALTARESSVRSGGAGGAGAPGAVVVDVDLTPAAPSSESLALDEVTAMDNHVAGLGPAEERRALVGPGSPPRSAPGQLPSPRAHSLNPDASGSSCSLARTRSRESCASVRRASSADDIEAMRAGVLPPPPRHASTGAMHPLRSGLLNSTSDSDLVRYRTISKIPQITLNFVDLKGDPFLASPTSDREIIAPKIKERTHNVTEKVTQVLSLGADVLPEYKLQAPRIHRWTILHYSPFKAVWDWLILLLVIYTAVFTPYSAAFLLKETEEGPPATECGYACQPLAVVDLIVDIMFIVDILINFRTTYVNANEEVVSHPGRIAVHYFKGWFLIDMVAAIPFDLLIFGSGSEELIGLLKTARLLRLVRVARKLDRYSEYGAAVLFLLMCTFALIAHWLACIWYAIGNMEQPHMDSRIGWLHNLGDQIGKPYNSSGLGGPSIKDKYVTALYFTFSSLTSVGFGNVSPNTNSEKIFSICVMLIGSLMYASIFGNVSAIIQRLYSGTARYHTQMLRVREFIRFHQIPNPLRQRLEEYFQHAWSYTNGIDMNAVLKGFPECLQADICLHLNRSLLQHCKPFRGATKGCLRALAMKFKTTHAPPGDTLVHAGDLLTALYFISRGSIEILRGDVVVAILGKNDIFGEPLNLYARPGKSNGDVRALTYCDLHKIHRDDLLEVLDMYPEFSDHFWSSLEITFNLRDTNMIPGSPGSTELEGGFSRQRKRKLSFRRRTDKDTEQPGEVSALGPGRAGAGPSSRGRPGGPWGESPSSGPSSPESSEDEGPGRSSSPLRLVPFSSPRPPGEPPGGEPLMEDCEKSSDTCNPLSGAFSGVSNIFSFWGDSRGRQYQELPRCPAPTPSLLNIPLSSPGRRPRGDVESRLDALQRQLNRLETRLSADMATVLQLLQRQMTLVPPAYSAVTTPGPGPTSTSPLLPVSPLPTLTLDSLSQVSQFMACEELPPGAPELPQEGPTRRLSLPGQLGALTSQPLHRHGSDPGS

Structure (SMILES) | hERG current change (%, negative = inhibition) at 10uM
Clc1ccc(-c2csc3ncnc(Cl)c23)cc1 | 6.78%
CCOC(=O)C1CCc2sc(N)c(C#N)c21 (stereo not shown) | 19.6%
O=C(NC1(C(F)(F)F)NC(=O)N(Cc2ccco2)C1=O)c1cccs1 (stereo not shown) | 21.7%
CCOc1ccc(NC(=O)CN(C)C(=O)c2cc(S(=O)(=O)N(C)C)ccc2N2CCCC2)cc1OCC | 6.11%
CN(C)c1ccc(S(=O)(=O)c2ccc(Cl)cc2)cc1 | 1.3%
CCCn1nnnc1NCc1ccc(OC)cc1 | 15.3%
N=c1c2c(ncn1CCN1CCOCC1)Oc1ccc3ccccc3c1C2c1ccccc1 (stereo not shown) | -49.3%
O=C(NCc1nc(-c2ccc(C(F)(F)F)cc2)no1)c1cccs1 | 5.51%
O=C(NN1CCOCC1)c1cn(-c2ccccc2)nc1-c1cccs1 | -1.47%
CN1CCN(CC(=O)N/N=C\c2c[nH]c3ccccc23)CC1 | 16.2%
CN(CC(=O)Nc1ccc(OC(F)(F)F)cc1)C(=O)/C=C/c1cc2c(cc1[N+](=O)[O-])OCO2 | -20.7%
CCc1ccc(-c2cc3c(=O)n(CC(=O)NCCCN4CCN(Cc5ccccc5)CC4)nc(C)n3n2)cc1 | -22.7%
CCCN(Cc1cc2cc(C)ccc2[nH]c1=O)C(=O)c1cccc(OC)c1 | -9.19%
COc1ccc(F)cc1C(=O)C1CCCN(Cc2cnc(C)s2)C1 (stereo not shown) | -21%
COc1ccccc1C(=O)NCCC(=O)N1CCN(S(=O)(=O)c2ccc(Cl)cc2)CC1 | -33%
Cn1nc(C(F)(F)F)cc1Oc1ncc(C(F)(F)F)cc1Cl | 14.6%
Cc1cc2ncn(/N=C/c3ccc(-c4ccccc4)o3)c2cc1C | -8.46%
CS(=O)c1ccccc1-c1nc(-c2cc(C(F)(F)F)cc(C(F)(F)F)c2)no1 (stereo not shown) | -17.4%
COc1ccc(-c2[nH]c(-c3ccc(Cl)cc3)nc2SCC(=O)Nc2nccs2)cc1 | 18.1%
O=C(CN1CCN(Cc2ccccc2Cl)C1=O)NCc1cccnc1 | -1.97%

Structure (SMILES) | hERG current change (%, negative = inhibition) at 10uM
Cl.N=c1n(CCN2CCCCC2)c2ccccc2n1CC(O)c1cccc(Br)c1 (stereo not shown) | -63.2%
O=C(O)c1cccc(NC(=S)N/N=C/c2ccccn2)c1 | 4.71%
S=c1[nH]nc(Cc2cccs2)n1-c1ccccc1Cl | 9.36%
CN1C(=O)/C(=C\N2CCc3ccccc32)C(=O)NC1=S | 4.71%
CCc1ccc(S(=O)(=O)NCc2cn3ccsc3n2)s1 | 6.83%
Cc1cc(=O)n2nc(N3CCC(C(=O)NCc4ccccc4Cl)CC3)sc2n1 | -30.1%
COc1ccccc1N1CCN(C(CNC(=O)c2ccc3c(c2)OCO3)c2cccnc2)CC1 (stereo not shown) | -14.6%
O=C(NCc1nnc(SCC(=O)N2CCN(c3ccccc3)CC2)o1)c1c(F)cccc1Cl | -32.4%
CCn1c(=O)[nH]c2cc(Cl)c(Cl)cc21 | -37.3%
CCCOc1ccccc1N1C(=O)CC(N2CCOCC2)C1=O (stereo not shown) | 2.59%
CCCOc1ccc(C2NC(=S)NC(C)=C2C(=O)c2ccccc2)cc1OC (stereo not shown) | 7.13%
O=[N+]([O-])c1ccc(N2CCN(CCOCCO)CC2)c([N+](=O)[O-])c1 | -45.6%
CC1CN(C(=O)Nc2ccc3snnc3c2)c2ccccc21 (stereo not shown) | -18%
CC1=CCC2C(=O)N(c3cc(C)on3)C(=O)C2C1 (stereo not shown) | -6.97%
COc1cc2c(cc1OC)/C(=C/C(=O)c1ccccc1)NCC2 | -16.4%
Cn1nc(-c2ccc(C(=O)Nc3cccc(Cl)c3)cc2)c2ccccc2c1=O | -1.1%
CCOCCCN1CN(Cc2ccco2)CNC1=S | 7.86%
O=C(NCc1ccccn1)c1ccc(Cn2cc(Br)cn2)o1 | 2.17%
CC(=O)Nc1ccc(NC(=O)Nc2cccc3ccccc23)cc1 | 18.2%
Clc1ccccc1OCCCCN1CCCC1 | -29.6%

Structure (SMILES) | hERG current change (%, negative = inhibition) at 10uM
O=C(C1=C(O)C(=O)N(CC2CCCO2)C1c1cccc(Cl)c1)c1ccco1 (stereo not shown) | -12%
COc1ccc(C)c2sc(N(CCN(C)C)C(=O)c3cccc(N4C(=O)CCC4=O)c3)nc12.Cl | -57.9%
O=C(NCCNC(=O)c1cc(Cl)ccc1Cl)c1cnccn1 | -7.72%
O=C(Nc1cccc(Cl)c1N1CCOCC1)c1ccc(Br)o1 | 6.64%
COc1ccc(S(=O)(=O)N(C)CC(=O)NCCC2=CCCCC2)cc1C | -26%
CC(C)COc1ccc(-c2nn(-c3ccccc3)cc2CO)cc1 | 10.6%
CCCOc1ccc(C(=O)C(c2ccccc2)N2CCOCC2)cc1.Cl (stereo not shown) | -8.62%
O=S1(=O)CCC(S(=O)(=O)N2CCCCCC2)C1 (stereo not shown) | 12.5%
O=C(OCC(=O)N1CCOCC1)c1cccc(S(=O)(=O)N2CCCc3ccccc32)c1 | -24.9%
CCOC(=O)CN(C(=O)c1ccccc1)c1ccccc1C | 0.425%
CCn1c(O)c(/C=C2\C=NN=C2c2ccc(C)cc2)sc1=S | 5.76%
CNC(=S)Nc1ccc2nc(C)c(C)nc2c1 | 6.61%
COc1cccc(-c2nc(Oc3cc(C)cc(C)c3)c3ccccc3n2)c1O | 12.1%
NC(=O)c1ccsc1NC(=O)COC(=O)C1=NNC(=O)CC1 | 8.28%
Cc1ccc(SCC(=O)NCc2ccncc2)cc1 | -6.77%
COc1ccc(NC(=O)c2ccc(COCC(F)(F)C(F)F)cc2)cc1 | 4.32%
COc1ccc(Nc2nc(N3CCCCC3)c3ccccc3n2)cc1 | -32.9%
O=C(OCc1ccc(Cl)c(Cl)c1)c1ccc[nH]1 | -19%
